# Source: PMC4336329 (PLoS ONE, 2015)
# Among all 310,000 compounds or so, about 14,000 (4.5%) showed an effect of 50% or more. Effects have a minus sign here. This is one part of the list.
# Molecular target: human ether-à-go-go-related gene (hERG) potassium channel (human, UniProt Q12809)
# Test: primary screen, population patch clamp on CHO cells stably expressing hERG
# 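Note: peak tail current of the secondary pulse compared with the same well before compound.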
# Chain of human ether-à-go-go-related gene (hERG) potassium channel (Q12809 whole entry, looked up): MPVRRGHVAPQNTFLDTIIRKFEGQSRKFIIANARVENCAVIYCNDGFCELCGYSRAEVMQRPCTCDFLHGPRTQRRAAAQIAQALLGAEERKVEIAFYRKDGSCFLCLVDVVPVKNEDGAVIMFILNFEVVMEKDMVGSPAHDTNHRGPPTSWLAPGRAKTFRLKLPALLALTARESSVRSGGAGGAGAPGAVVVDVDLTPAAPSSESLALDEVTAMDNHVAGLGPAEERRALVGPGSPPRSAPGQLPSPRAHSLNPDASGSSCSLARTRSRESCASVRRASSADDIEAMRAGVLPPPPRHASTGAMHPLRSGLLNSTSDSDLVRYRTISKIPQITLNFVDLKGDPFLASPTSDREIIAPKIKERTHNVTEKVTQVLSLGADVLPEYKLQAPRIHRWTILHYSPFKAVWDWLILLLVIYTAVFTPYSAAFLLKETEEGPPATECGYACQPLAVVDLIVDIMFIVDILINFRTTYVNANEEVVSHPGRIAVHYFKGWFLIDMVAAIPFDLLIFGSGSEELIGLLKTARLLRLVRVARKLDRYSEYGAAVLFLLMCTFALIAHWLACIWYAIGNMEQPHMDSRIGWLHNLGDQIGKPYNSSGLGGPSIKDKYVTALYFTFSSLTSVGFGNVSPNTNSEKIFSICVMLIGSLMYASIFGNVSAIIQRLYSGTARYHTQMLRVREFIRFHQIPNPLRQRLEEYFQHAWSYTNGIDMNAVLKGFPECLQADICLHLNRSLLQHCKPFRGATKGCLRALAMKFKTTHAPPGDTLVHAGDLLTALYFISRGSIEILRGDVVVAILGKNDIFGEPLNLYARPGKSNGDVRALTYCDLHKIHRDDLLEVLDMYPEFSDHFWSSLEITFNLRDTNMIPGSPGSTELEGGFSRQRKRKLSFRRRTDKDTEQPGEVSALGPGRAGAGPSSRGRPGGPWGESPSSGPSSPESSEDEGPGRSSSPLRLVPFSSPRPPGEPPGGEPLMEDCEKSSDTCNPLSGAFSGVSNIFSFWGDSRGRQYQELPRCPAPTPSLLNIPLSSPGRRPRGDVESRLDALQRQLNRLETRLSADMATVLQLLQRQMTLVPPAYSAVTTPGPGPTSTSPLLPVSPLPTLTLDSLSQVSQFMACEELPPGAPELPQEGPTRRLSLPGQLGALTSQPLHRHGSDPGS
row,SMILES,"hERG current change (%, negative = inhibition) at 10uM [%]"
1,CCc1cccc(NC(=O)CS(=O)Cc2nc(-c3ccc(C)cc3)oc2C)c1 (stereo not shown),-19.8
2,CN(C)C=O.Cc1ccccc1NC(=O)COC(=O)C1=COCCO1,5.8
3,Nc1cc([N+](=O)[O-])ccc1N1C(=O)CCCC1=O,14.5
4,COc1ccc(NC(=O)c2cc3ccc(O)cc3o/c2=N\O)cc1,2.99
5,COc1ccc(NC(=O)CCSc2nnnn2C)cc1,9.45
6,CC(C)C[C@H](NC(=O)c1[nH]cnc1C(=O)Nc1ccccc1)C(=O)OC(C)(C)C,-1.86
7,Cc1ccc(C(=O)NCCSCc2ccccc2)cc1[N+](=O)[O-],-34.3
8,CC(=O)Nc1ccc(S(=O)(=O)NC2=C(N3CCN(c4ccc(F)cc4)CC3)C(=O)c3ccccc3C2=O)cc1,5.95
9,COCCNCC(=O)Nc1ccccc1Sc1ccccc1.O=C(O)C(=O)O,-13.6
10,COc1ccc2nc3oc(C(=O)N4CCC(C(N)=O)CC4)cc3cc2c1,-2.11
11,CC(Oc1ccccc1Cl)C(=O)Nc1ccccc1C(=O)N1CCOCC1 (stereo not shown),-0.907
12,CCC(C)(C(=O)NC1CCCC1)N(C(=O)CC1NC(=O)NC1=O)c1c(C)n(C)n(-c2ccccc2)c1=O (stereo not shown),3.1
13,COc1ccccc1C(=O)NCCC(=O)Nc1ccc(C)cn1,12.6
14,Clc1cccc(N=C2NN=C(c3ccc4c(c3)OCCO4)CS2)c1,16.4
15,CC1(C)Cc2ccccc2C(NNC(=O)c2ccccn2)=N1,2.95
16,CCc1cc(/C(Cc2cscn2)=N\O)c(O)cc1O,3.66
17,Cc1onc(-c2ccccc2)c1C(=O)N1CCN(C)CC1,0.556
18,O=C(O)c1ccccc1Sc1c([N+](=O)[O-])cc(C(F)(F)F)cc1[N+](=O)[O-],36.5
19,O=c1c2ccccc2nc(/C=C/c2cc(Br)ccc2O)n1CCCO,11.5
20,CC1=C(C(=O)OC2CCCCC2)C(c2cccc([N+](=O)[O-])c2)NC(=O)N1 (stereo not shown),-5.62
21,O=S(=O)(Oc1ccccc1)c1cccnc1,9.51
22,OCC[C@H]1C[C@@H](O)[C@H](O)[C@]2(CCc3ccccc3O2)O1,6.93

row,SMILES,"hERG current change (%, negative = inhibition) at 10uM [%]"
1,CCn1nnnc1SCC(=O)c1ccc(C)cc1,-9.66
2,CCOc1ccc2[nH]c(=O)c(CN(CC3COCCO3)C(=O)c3ccc(C)cc3)cc2c1 (stereo not shown),-20.7
3,COc1ccc(S(=O)(=O)NC(C)C(=O)NCc2cccnc2)cc1C (stereo not shown),-27.9
4,C=CCSc1nnc2c(n1)OC(c1cccnc1)N(C(C)=O)c1ccccc1-2 (stereo not shown),-13.8
5,COc1ccc(C(=O)N2CCN(Cc3cn[nH]c3-c3ccc(OC)cc3F)CC2)cc1,-38.3
6,O=Nc1c(O)n(Cc2ccc(Cl)c(Cl)c2)c2ccccc12,-5.57
7,O=C(C1CCCCC1)N1CCc2[nH]c3ccc(F)cc3c2C1,-3.94
8,Nc1nc(NCCCN2CCOCC2)nc(Nc2ccccc2F)c1[N+](=O)[O-],-18.8
9,Cc1cccc(NC(=O)c2ccccc2OCC(=O)c2ccccc2)c1,12.1
10,COc1ccccc1NC(=O)C1C2C=CC(C2)C1C(=O)NCc1cccnc1 (stereo not shown),-10.7
11,CSCC[C@H](NC(=O)[C@@H]1Cc2ccccc2CN1)C(=O)NC(C)c1ccccc1 (stereo partly shown),5.77
12,CCOc1ccc(S(=O)(=O)N2CCOCC2)cc1NC(=O)C1CCC1,16.3
13,O=C(CN(CC1CCCO1)C(=O)CNS(=O)(=O)c1ccc(F)cc1)NCc1ccccc1 (stereo not shown),7.27
14,CN(CC(=O)Nc1ccc(OC(F)(F)F)cc1)C(=O)Cc1ccc2c(c1)CCC2,17.7
15,Cc1ccc(C(=O)Nc2ccc(S(=O)(=O)NCc3ccco3)cc2)cc1,-5.85
16,Cc1cccc(NC(=O)CNC(=O)c2cccc(-n3cccc3)c2)c1C,-7.5
17,Cc1ccc(NC(=O)Cn2cccc2)cc1Cl,-13.9
18,CCC(C)[C@H](NC(=O)N1CC(=O)Nc2ccccc21)C(=O)N[C@@H](Cc1c[nH]c2ccccc12)C(=O)O (stereo partly shown),3.4
19,CC(C)C(C)N(Cc1ccc(C(=O)O)cc1)C(=O)c1ccc2ccccc2n1 (stereo not shown),0.513
20,CCOC(=O)CCc1c(C)c2ccc(OCc3cc([N+](=O)[O-])ccc3OC)c(C)c2oc1=O,-0.512
21,Cc1cc2ccccc2cc1CN1CCOCC1,-2.48
22,CS(=O)(=O)c1ccc2nc(NC(=O)C3C4C=CC(C4)C3C(=O)O)sc2c1 (stereo not shown),10.7

row,SMILES,"hERG current change (%, negative = inhibition) at 10uM [%]"
1,OCc1cn(-c2ccccc2)nc1-c1cccnc1,5.13
2,CCN1CCN(C(=O)N(Cc2ccc(Cl)cc2)S(=O)(=O)c2ccc(C)cc2)CC1,-20.6
3,CC1(C)CC(CC(=O)O)CC(C)(C)N1.Cl,3.16
4,COc1ccccc1N1CCN(c2nccc(C)n2)CC1,-2.72
5,O=C(Nc1cccnc1)c1ccc(Cl)c(S(=O)(=O)N2CCc3ccccc32)c1,-42.7
6,CCn1c2ccccc2c2cc(NC(=O)c3ccc(Br)o3)ccc21,12.2
7,Cc1ccc(CNC(=O)CN(C)S(=O)(=O)c2ccc(F)cc2)cc1,2
8,Cc1ccc(C)c(S(=O)(=O)N2CCCOC2CNC(=O)C(=O)NC2CC2)c1 (stereo not shown),20.8
9,Cc1[nH]c2c(C)cccc2c1CCNC(=O)c1ccc2c(c1[N+](=O)[O-])C(=O)c1ccccc1C2=O,16.2
10,C[N+](C)(C)CC=O.[Cl-],13.7
11,CCn1c(=O)c(C(=O)CN2c3ccccc3CC2C)c(N)n(Cc2ccccc2)c1=O (stereo not shown),3.42
12,O=C(COc1ccccc1)N(Cc1cc2ccccc2[nH]c1=O)CC1CCCO1 (stereo not shown),-1.24
13,Cc1cc(C)c(S(=O)(=O)N(C)CC(=O)NCc2ccccn2)c(C)c1,-18.4
14,CCOC(=O)c1ccccc1NC1c2ccccc2C(=O)N1c1cc(C)ccn1 (stereo not shown),-3.98
15,COCc1ccccc1C1=CC(=O)C[C@H](c2ccc(F)cc2)C1,-47.7
16,CC(=O)c1ccccc1OCC(O)CN1CCN(CCN2C(=O)c3cccc4cccc(c34)C2=O)CC1 (stereo not shown),-73.3
17,O=C1CCCC(O)=C1N=Nc1cccc(S(=O)(=O)N2CCOCC2)c1,-1.24
18,Cc1c(C(=O)OC(C)C)[nH]c2c1C(=O)CCC2,3.92
19,CC1(C)CN=c2s/c(=C\c3ccc(Cl)cc3)c(=O)n2C1,-10.6
20,COc1ccc(NS(=O)(=O)c2cccc(C(=O)NCC(c3ccco3)N(C)C)c2)cc1 (stereo not shown),-28.5
21,CCCC(=O)Nc1ccccc1NC(=O)c1ccc(OCC)cc1,-3.12
22,Cc1ccc(NC(=S)N2CCC(c3nc4ccccc4s3)CC2)cc1C,8.85

row,SMILES,"hERG current change (%, negative = inhibition) at 10uM [%]"
1,COc1ccc(C2Nc3ccccc3C(=O)N2NC(=O)c2ccccc2)cc1OC (stereo not shown),3.24
2,COc1cc2c(cc1NC(=O)CN(C)Cc1nc3ccccc3c(=O)[nH]1)oc1ccccc12,8.42
3,COc1ccc2c(c1OC)C(=O)N(c1cccc(C)c1)C2=O,1.15
4,O=C(NNS(=O)(=O)c1ccc(F)cc1)C1CC(c2cccnc2)=NO1 (stereo not shown),9.52
5,COc1ccc(-n2c(=S)[nH]c3cc(C(=O)NCc4cccnc4)ccc3c2=O)cc1,19.9
6,CCOc1ccc(NC(=O)CN(C)C(=O)c2ccncc2)cc1OCC,-5.45
7,COc1ccccc1NC(=O)CN1CCC(C(=O)c2ccc(F)cc2)CC1,-38.5
8,Cc1cccc(NC(=O)NNC(=O)c2cc3occc3[nH]2)c1C,19.3
9,COc1ccc(CCNC(=O)CSc2nnc3ccc(-c4ccccn4)nn23)cc1OC,2.17
10,O=S(=O)(Nc1cccc2ccccc12)c1cccs1,14.9
11,CC(=O)/C=C(\C)N=Nc1c(O)[nH]c2ccccc12,5.48
12,Cc1ncn(C23CC4CC(CC(C4)C2)C3)n1,17.1
13,C#CCOCCOCCOCCNc1nc(N2CCN(C(=O)CCCCCCCCCCNC(=O)Cn3cc(C[C@@H](C)O)nn3)CC2)nc(N2CCN(C(=O)CCCCCCCCCCNC(=O)[C@H](CCCN=C(N)N)n3cc(C[C@@H](C)CC)nn3)CC2)n1,3.82
14,CC(C)c1ccc(NC(=S)N2CCN(C)CC2)cc1,-0.899
15,CC(O)(CS(=O)(=O)Cc1ccccc1)c1ccccc1 (stereo not shown),15.2
16,O=C1CCC([N+](=O)[O-])C(c2ccc(-c3ccccc3)cc2)N1 (stereo not shown),-11.3
17,Cc1nc2ccccc2n1CCOc1ccc([N+](=O)[O-])cc1,-73.8
18,O=C(Cn1nnc(-c2ccccc2Cl)n1)N1CCCCC1,0.255
19,Cc1cc(C(F)F)n2nc(C(=O)NCc3ccccc3F)nc2n1,8.17
